# The list shows a part of the results. Antibody binding of pooled human sera (four to six donors per pool; dilution not stated) to peptides of the Trypanosoma cruzi antigen TSSA on microarrays. Quantile-normalised fluorescence in arbitrary units, mean of duplicate arrays; higher = more binding. No active / inactive call. The uninfected pools are read here as the healthy donors of the same country. The strongest signals lie near the top of the scale (about 60,000).
# Legend:
# Experiment in all cases: antibody binding signal (normalised fluorescence) (arbitrary fluorescence units); higher = stronger serum antibody binding to peptide
# [1] = test system: pooled sera of chronic Chagas disease patients, Argentina
# Description: (§1)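 Microarray of 15-residue peptides over residues 30-55 of Trypanosoma cruzi TSSAII, each with 1 to 10 substitutions at naturally variable positions, probed with one serum pool per country.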
# [2] = test system: pooled sera of chronic Chagas disease patients, Bolivia
# Description: as §1
# [3] = test system: pooled sera of chronic Chagas disease patients, Brazil
# Description: as §1
# [4] = test system: pooled sera of chronic Chagas disease patients, Colombia
# Description: as §1
# [5] = test system: pooled sera of chronic Chagas disease patients, Mexico
# Description: as §1
# [6] = test system: pooled sera of chronic Chagas disease patients, USA
# Description: as §1
# [7] = test system: pooled sera of uninfected people, Argentina
# Description: as §1
# [8] = test system: pooled sera of uninfected people, Bolivia
# Description: as §1
# [9] = test system: pooled sera of uninfected people, Brazil
# Description: as §1
# [10] = test system: pooled sera of uninfected people, Mexico
# Description: as §1
# [11] = test system: pooled sera of uninfected people, USA
# Description: as §1
Sequence,antibody binding signal [1],antibody binding signal [2],antibody binding signal [3],antibody binding signal [4],antibody binding signal [5],antibody binding signal [6],antibody binding signal [7],antibody binding signal [8],antibody binding signal [9],antibody binding signal [10],antibody binding signal [11]
TISTPPSGTDNKPAA,46800,49600,54100,6090,13300,27000,4010,918,1080,962,1030
TPPSGKDKKPAAGEA,7510,3290,6690,365,44500,1400,552,462,118,92.8,127
PSGTDKKPATGGAPS,4930,775,27400,9900,2950,2880,351,1120,183,1390,268
DKKTAAGETPSQSGA,359,418,1220,304,366,835,106,213,206,728,179
PPSGKDNKPAAGETP,960,5000,23100,715,6860,12600,472,716,265,338,223
NKTAAGGTPSQPGAS,1330,289,2880,6820,636,1670,812,1050,1250,2030,1330
ENKTAAGETPSQPGA,673,4780,34800,286,232,3650,140,1180,248,257,223
DKKAAAGGTPSPSGA,736,186,184,5330,471,1570,166,119,1900,99.3,186
KEKKTAAGGTPSPSG,258,189,149,3210,189,1490,94.5,85.1,647,105,110
PPSGTDKKAAAGEAP,8420,12900,28100,3750,36500,9450,432,416,504,2880,220
TPPSGKEKKAATGEA,9660,411,714,516,21100,1770,461,663,105,158,159
PSGTEKKTAAGETPS,9280,2800,4290,3030,3320,3930,316,390,178,319,462
KDNKAAAGGAPSPSG,190,190,411,1250,180,342,256,2180,142,78.3,94
GTEKKAATGETPSQP,3340,2770,37800,678,925,11700,595,635,398,181,199
KDNKPAAGEAPSPSG,567,1320,22900,507,241,15600,331,417,176,330,97.7
GKDNKTATGETPSQP,5690,3110,32800,8470,7720,9440,358,331,267,219,225
DKKPATGGTPSQPGA,888,833,4190,2660,707,694,464,431,1190,600,204
DNKAATGETPSPPGA,2220,4720,21200,193,168,11700,147,221,190,166,673
GTENKPAAGGTPSPP,43100,2910,4220,1110,1360,531,406,1980,1080,249,150
TDKKAATGGTPSQSG,1240,504,449,935,704,983,325,114,709,178,140
DNKAATGGTPSQPGA,501,1110,7130,1100,411,362,451,182,706,1110,137
GTEKKAATGETPSPP,3200,2350,12300,1550,3360,13000,527,700,239,195,1120
KKPATGGAPSPSGAS,450,664,809,812,340,860,359,861,95.1,120,291
GTDNKPATGGAPSQP,4910,16100,44500,1920,595,2670,325,1310,589,408,173
SGTENKPATGEAPSP,46000,49500,48200,354,414,46800,1330,1320,383,324,147
TENKTATGEAPSPSG,22400,31400,18800,107,144,20800,121,118,205,117,129
GTEKKAAAGGAPSPP,913,185,242,5540,1210,1340,222,419,222,121,143

Sequence,antibody binding signal [1],antibody binding signal [2],antibody binding signal [3],antibody binding signal [4],antibody binding signal [5],antibody binding signal [6],antibody binding signal [7],antibody binding signal [8],antibody binding signal [9],antibody binding signal [10],antibody binding signal [11]
TDNKAATGETPSPSG,3180,5950,19200,218,149,13900,145,314,214,423,3200
TPPSGKDKKAAAGGA,4330,267,1100,959,41200,702,270,289,143,104,109
GTDNKPAAGETPSPS,1760,279,41200,984,245,4490,141,689,524,525,1930
GTDNKAATGEAPSQP,25200,41200,44700,152,277,28700,199,519,1180,124,82.3
DNKPAAGGAPSPSGA,218,620,3070,1750,244,755,331,365,558,373,189
GTDKKPATGETPSQP,32000,17900,42800,5980,555,23600,247,455,451,2080,162
TDKKPATGETPSQSG,30000,25100,32400,282,222,21900,224,407,256,1740,172
GKDKKPAAGGAPSQS,327,196,167,1530,537,325,109,77.1,134,485,104
ENKPAAGETPSQSGA,1490,1630,21700,440,434,4860,168,304,306,182,194
KTAAGEAPSQSGASS,377,17200,9760,161,769,2950,340,558,297,169,196
DNKAATGETPSQPGA,7040,7610,41900,139,188,14100,126,932,375,213,204
KPATGGAPSQPGASS,813,4920,16600,234,352,816,311,919,145,136,182
SGKDKKPAAGETPSQ,799,649,2420,1780,977,1500,123,126,112,80.2,94.2
GKDKKTATGGAPSQP,502,202,272,677,620,481,252,122,368,110,88.9
SGTENKPAAGEAPSP,42600,18200,33300,526,1020,18500,792,1140,203,190,122
PPSGTDNKTATGEAP,33800,34900,44000,779,3260,22900,459,467,674,173,263
SGTENKAATGGTPSQ,37500,10200,16900,728,671,2640,485,327,345,178,109
TDKKAATGGAPSPPG,2260,282,1400,2020,2020,1630,395,414,152,146,146
TPPSGTDNKTATGGA,43400,42600,46800,1120,20700,11300,1480,682,1600,298,396
GKDKKTAAGGTPSQP,377,257,201,3730,434,1580,229,132,288,383,112
KEKKTATGGTPSQSG,312,404,199,1260,202,1240,234,86.8,119,126,119
KENKAAAGEAPSQPG,5130,4710,40300,164,150,11600,115,120,123,73.8,119
KDKKPAAGETPSPPG,222,193,1160,125,145,595,112,152,112,79.2,223
GKDNKPATGGTPSPP,1130,239,989,1290,1770,1820,272,639,171,130,123
SGTDNKAAAGETPSP,322,221,44100,484,208,1140,107,687,1150,255,679
PSGKENKAAAGGTPS,8530,4010,11100,14800,11500,9990,4980,2710,236,346,173
GTEKKTATGGTPSQS,775,470,581,2660,934,1820,370,336,272,256,138
